Whole data set: some 33,000 sequences, median “E-score (-0.5 to 0.5)” near -0.04, cut for the highest 2% near 0.36. The list shows a part of the results.
The sequences below were run against T1, Hmlalpha2 (UniProt P0CY09) (assay: PBM E-score (8-mer binding enrichment) (E-score (-0.5 to 0.5)); higher = stronger / more preferred TF binding; most listed sequences are background and not binding sites). Details: protein concentration: 200 nM; construct: GST-full length.
T1 sequence: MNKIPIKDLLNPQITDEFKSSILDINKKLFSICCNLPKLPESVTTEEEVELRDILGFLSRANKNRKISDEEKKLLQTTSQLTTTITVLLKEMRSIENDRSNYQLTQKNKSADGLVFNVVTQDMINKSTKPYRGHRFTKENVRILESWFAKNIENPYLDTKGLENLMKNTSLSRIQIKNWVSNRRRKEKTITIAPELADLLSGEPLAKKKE
Method in brief: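 Masliner-normalised scans of fluorescent anti-GST signal were the basis for scoring. That signal came from GST-tagged yeast transcription factors applied at about 100-200 nM to double-stranded universal all-10-mer Agilent arrays on fresh or once-stripped slides. Each ungapped eight-base word, pooled with its reverse complement, received an E-score from the Universal PBM Analysis Suite.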

Sequence | PBM E-score
ATATAGCA | 0.0464
GCTACACC | 0.0231
ACACGCGG | 0.324
CAAACCAA | 0.14
AAGTATCA | 0.0434
ATCGTTGG | 0.0955
AAGATTAC | 0.265
GCGATAGA | -0.00393
ACCTGAGG | -0.266
GATCGGAC | -0.0333
AGGTGGTC | -0.173
ATATGCAC | -0.0157
GTTACCCA | 0.0243
GGATTGAC | -0.0594
CCGCGAAA | -0.0665
ACTTAATA | 0.212
AGCCGTGC | -0.0432
ACGCCAAA | -0.116
CAAAGCTA | 0.0855
CACTATGC | 0.0946
AGAATCGC | -0.106
GTCGTACA | 0.163
CCACACGG | -0.0191
ATGCGGAA | -0.108
AACACTAC | 0.256

Sequence | PBM E-score
GAGATTTA | -0.0174
CGGCACAG | -0.275
GCATTTCC | -0.105
GTCCAGGA | -0.133
TTCACCAA | -0.0146
AGTATCAC | -0.103
AATCACGG | -0.0481
GATCTTCC | -0.125
GACGATAA | -0.155
CTTAATGA | -0.00841
AAATTTAT | 0.201
CCGACTAG | -0.381
AGCGGCAT | -0.0338
CCCGTCAC | -0.255
ATCGATGC | 0.0612
AGAAGCCA | -0.146
ATGAGGAG | -0.187
GGCAATTA | 0.0118
GAGTGACC | -0.264
AAGGGCAG | -0.256
ACAGTAAA | 0.103
GGATTGGA | -0.193
CGACTTAC | -0.0878
GCGTAACC | 0.18
ATGGTTAC | 0.212

Sequence | PBM E-score
CGCCACCA | -0.214
CATATAGC | 0.0334
CCCACCTA | -0.204
TATAACGA | 0.176
ATCGGCTA | -0.0638
ACTAAACC | 0.064
ACGAGTGC | -0.00337
CAGAATCC | -0.111
CCGTTGAA | -0.0872
TCTGGTAA | 0.109
AGAACTCT | -0.0547
GTACCGAC | -0.128
TCATTTAA | 0.0591
CGTGGCAA | -0.0577
CGATAGTC | 0.13
CCACACCA | 0.0331
GAGAGGCA | -0.275
AGGCACCG | -0.106
AAGTAAAC | 0.283
GTCGCCAC | -0.316
AAACAAAG | 0.127
ATGGATAC | 0.154
AATCGCAA | -0.0873
CACATCTG | -0.0493
CTTTCGGC | -0.185

Sequence | PBM E-score
CCTTCGTA | -0.14
TAAGCTAA | 0.0671
AGTACGGG | -0.205
ATACCGGC | -0.0372
CTGTTTAA | 0.11
ATAACGGG | -0.105
TTGATAAA | 0.292
GACAAGTC | 0.0138
ATGAATCA | -0.0009
CCGTATCA | -0.0806
GCTAATAC | 0.0842
ACATTATA | 0.289
CTCTTCCA | -0.168
ATTACAAG | 0.466
CACGGGGA | -0.168
GTGGCCTA | -0.245
CCCTTTCA | -0.0775
AGGACGCC | -0.0061
CGTCTAAC | 0.144
CTAATCAA | 0.0881
CACTTTAC | 0.251
ATTAAGGC | -0.07
CAGCGAAA | 0.0784
GGTTACGA | -0.121
ATGGGGTG | -0.0279

Sequence | PBM E-score
AGGTCGAA | 0.00227
GGGTGGCA | -0.306
GGTCCCAC | -0.24
AGACGCGC | 0.0259
CCAGGCGG | -0.0584
AAGAATGT | 0.16
CGACCCGA | -0.28
AGGCGGTA | -0.0513
CAGGTAAG | -0.0532
CGAGCTCA | -0.242
CCATAAAC | -0.158
GTAAGCGA | 0.12
GAATGACA | 0.257
TCCGAGAA | -0.0131
AATAGCGT | 0.147
CATACACG | 0.398
CTGCAGGA | -0.0889
AGCGTTTA | 0.186
CAACGCTG | 0.0213
TGCCTAAA | -0.079
CACGCATA | 0.115
GCTAAAAA | -0.00065
AGAATCTG | -0.187
ACGTCTTA | 0.107
CAGAGTAC | 0.0797

Sequence | PBM E-score
GACGGGCC | -0.23
TAACTAAA | 0.151
CGCTGCCG | -0.168
CCGCGGCC | -0.192
GCGCCGCA | -0.0951
ATTAGGTA | 0.269
GCGCATAA | -0.111
ATCTCCCA | -0.211
GCATAGGA | -0.0777
ATCTTACC | -0.167
ACTAGGTG | -0.177
GTCCGCTA | 0.0217
GAAGTGAA | 0.00643
AGCGCCCA | -0.344
CCGGTCAG | -0.289
GTCCATAA | -0.114
ATCCGGTC | -0.273
AATATCCT | -0.0463
GCCTAGCA | -0.313
ACTGCAAC | -0.143
CATCTAAA | -0.0362
GACATGTA | 0.423
AAATGCCT | -0.0309
GGGGCAAA | -0.292
GCCGAAGA | -0.0269

Sequence | PBM E-score
ACCACAAC | 0.158
ATTTAGCG | -0.0325
ACTGCATA | 0.14
GACTGCTA | -0.28
CCGCCCAG | -0.274
CTGGGCTC | -0.15
CAATGGAC | 0.0473
CTCGGGCC | -0.24
ACTTAACT | 0.159
CGAGTCCA | -0.263
CCCAGACC | -0.176
GAGCGAAA | -0.0366
GACCGTGC | -0.143
AAGGGTGA | -0.238
CAGGAGCG | -0.0918
CCGTCTCC | -0.312
AGGCTGAA | -0.074
GTGAGCGA | -0.181
AGAGACCC | -0.226
ACTCGTAT | 0.119
CACACTAA | 0.191
AAGTACGA | 0.101
GGGACGGA | -0.409
GATAGCAC | -0.141
CAGGCATA | -0.138

Sequence | PBM E-score
TCCCACCA | -0.136
GAAGCCGC | -0.151
CGGAACAG | -0.247
GACTGCTC | -0.212
ATGTATCA | 0.271
GCTGGACC | -0.296
AAAATGTT | 0.254
GTAAATCA | 0.333
GAGTAATC | 0.124
AGAATCAG | -0.191
AGTGCTCC | -0.226
CGAACCAC | -0.161
AACCGATT | -0.0547
GATGCGCA | -0.142
GGCGGTAC | -0.194
ATGTGTGG | 0.0473
TCAGCGCA | -0.118
ACATATTA | 0.389
CTGGTAAG | -0.0519
AAGAGGAA | -0.11
AGGTTTGA | -0.159
ACTCGTTA | 0.0828
GGAGCGTA | 0.0109
ACAAATAT | 0.255
TCTCTCAA | 0.0292

Sequence | PBM E-score
AGACAACA | 0.214
AAACTAAC | 0.272
AAGACACC | -0.166
ATTAGTCC | -0.0808
GATTCCCA | -0.191
AAGCGTTC | -0.0758
AGCATCCT | -0.223
AGACATCT | -0.158
GGTGTAGA | 0.176
AGCACCGG | -0.24
ATCTCCAC | -0.0649
AATAAAAT | 0.217
GCCTGGCA | -0.205
ATGCAATA | 0.173
CGAAATAA | 0.131
GCAACAAC | 0.165
TCACTTCA | -0.131
AAAGCTTA | 0.102
GAGCATAC | 0.0354
ACAACCAA | -0.00406
AGTCCCAC | -0.303
CGAATTCC | -0.0493
GAACCCCC | -0.407
AATAGTCC | -0.118
GGGAGGAC | -0.236

Sequence | PBM E-score
ACCGAAGT | -0.0175
CGGACACA | -0.0204
ATGCCTCC | -0.174
CCCTCAGA | -0.285
CGCTTGCC | -0.0338
CACGGACG | 0.208
TTAGAGAA | -0.0628
AGTAAACC | 0.0456
CAATTAAA | 0.074
CGACGTCA | -0.0558
AATTTCCT | -0.122
AGACTATA | 0.0277
CAGGATCC | -0.279
CCTGCCTC | -0.388
ACGACTGG | -0.159
CCCGTACG | -0.198
CCTTCAAC | 0.058
CGGGGCAA | -0.242
CGTTTCAC | 0.0369
ACACGAAC | 0.363
ATCGTCAT | 0.0742
CACTAACA | 0.162
AGTTGACG | 0.0733
GATCAAAC | -0.0737
AGTGAGCC | -0.138

Sequence | PBM E-score
GAAGCCTA | -0.125
TCAGCCCA | -0.114
CATCACTC | -0.122
GCTTGGCC | -0.283
CTAGAATC | -0.113
CATGTCAG | 0.314
CTTTAAAG | 0.0438
CTGTCACC | -0.0592
CCTCTACA | 0.189
AAAGTTGA | 0.0376
ATGTTTGG | 0.17
CCAACAAC | 0.158
AAGCGCCG | -0.0679
GATCTTGA | -0.0587
GGACGAAA | 0.038
TAAAAGCA | -0.097
AGAATAAT | 0.0208
AGGCCACC | -0.246
TCTTGGAA | 0.0595
AGGCTCAC | -0.202
ATACTTCG | -0.00072
GACCCCCC | -0.242
CTTCGGAA | -0.119
CACTTAAA | 0.125
AGCATTTC | 0.135

Sequence | PBM E-score
GTGGGTTA | -0.0705
CATAATAC | 0.196
TCAAAGAA | 0.232
ATTCTAGC | -0.0413
CAGATATG | 0.0264
GAAGGGTA | 0.0316
GCATTGGA | -0.157
GCCATGCC | -0.133
ATACTAAT | 0.121
AATCCCAC | -0.0548
GCTCCAGA | -0.207
CCCCAGCC | -0.303
CGTCGCCC | -0.103
ATGTGGGC | -0.174
CATTACGC | 0.321
CACAGCTA | 0.0928
ACGGACGG | -0.161
CGATAGGA | -0.14
AAGCGATG | -0.145
GAAAACAA | 0.185
TGGGCCAA | -0.0345
GGAGATTA | 0.0631
CAAGATAC | 0.186
CAGGTGGG | -0.0826
ATAAGCAT | -0.00286

Sequence | PBM E-score
ATGTATAA | 0.395
ATGGAAGA | -0.206
TGAACGCA | 0.131
CGGTGATC | -0.128
AATCTTCG | 0.253
CTATCTCC | -0.192
AGCCGACA | -0.0285
AGCGACAC | 0.112
AACTGTCG | 0.0572
ACGGCTGA | -0.00597
AATCCTCC | -0.332
CCTTCTTC | -0.233
AGACTACG | -0.158
GAGGCTCA | -0.344
AAATATAG | 0.108
GCATACAC | 0.256
CATTTTGA | -0.0382
CGACCCCG | -0.147
CGCTTAAA | 0.00069
TAAGGATA | -0.0306
ATTATTCA | 0.188
CTCCCAGC | -0.168
CCTTTATC | -0.214
TAAGTGTA | 0.187
GCTGGGAA | -0.139

Sequence | PBM E-score
ATCTCTCA | -0.0672
CGTAACGA | -0.0509
CCGGGTAG | -0.137
CGTTCGCA | 0.0412
ACTGCGGC | -0.325
TAACAGAA | 0.238
TTAGCCAA | 0.00387
CGCACCCC | -0.102
CGGTTGCC | -0.119
TATCTTCA | 0.0172
CGGAATAG | -0.0706
GAGAGAAC | -0.00521
CGCAGGGC | 0.0152
ACTGGAAT | 0.0461
AATGTTAG | 0.185
GCTCCTGA | -0.263
CACAAGCG | 0.074
GGTGCTAA | -0.042
AATCAATG | 0.161
